Measurements: the supplement of paper PMC3334620
Whole data set: some 33,000 sequences, median “E-score (-0.5 to 0.5)” near -0.012, cut for the highest 2% near 0.29. The list shows a part of the results.

biological target: T1, Ybr033w (UniProt P38073); test: PBM E-score (8-mer binding enrichment) (E-score (-0.5 to 0.5)); higher = stronger / more preferred TF binding; most listed sequences are background and not binding sites; conditions: protein concentration: 200 nM; construct: GST-full length
T1 sequence: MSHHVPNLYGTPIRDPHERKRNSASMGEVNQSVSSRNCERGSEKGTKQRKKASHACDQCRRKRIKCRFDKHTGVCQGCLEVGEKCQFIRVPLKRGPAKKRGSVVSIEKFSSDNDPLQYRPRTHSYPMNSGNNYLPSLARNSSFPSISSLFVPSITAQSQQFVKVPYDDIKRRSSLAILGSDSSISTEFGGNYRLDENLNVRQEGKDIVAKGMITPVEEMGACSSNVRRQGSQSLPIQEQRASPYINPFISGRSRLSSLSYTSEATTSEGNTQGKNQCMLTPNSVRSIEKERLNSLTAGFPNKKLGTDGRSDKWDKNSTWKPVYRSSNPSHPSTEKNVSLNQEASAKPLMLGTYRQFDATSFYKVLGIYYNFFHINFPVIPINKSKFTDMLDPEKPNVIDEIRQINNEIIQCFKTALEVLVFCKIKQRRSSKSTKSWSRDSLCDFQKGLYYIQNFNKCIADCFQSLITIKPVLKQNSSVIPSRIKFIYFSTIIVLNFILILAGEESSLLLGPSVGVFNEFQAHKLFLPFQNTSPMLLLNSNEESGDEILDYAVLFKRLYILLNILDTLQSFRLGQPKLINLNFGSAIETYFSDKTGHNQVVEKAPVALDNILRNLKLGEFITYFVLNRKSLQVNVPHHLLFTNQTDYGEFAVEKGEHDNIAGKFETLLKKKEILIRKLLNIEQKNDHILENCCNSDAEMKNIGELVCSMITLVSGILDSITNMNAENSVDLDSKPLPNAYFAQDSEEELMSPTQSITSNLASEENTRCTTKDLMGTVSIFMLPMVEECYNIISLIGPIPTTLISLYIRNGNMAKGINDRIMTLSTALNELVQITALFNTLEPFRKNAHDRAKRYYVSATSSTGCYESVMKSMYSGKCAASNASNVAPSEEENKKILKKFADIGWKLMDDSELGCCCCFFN
Method in brief: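 Detection of bound protein used fluorescent anti-GST, with scans normalised by masliner. The proteins were GST-tagged yeast transcription factors applied at about 100-200 nM to universal all-10-mer Agilent arrays made double-stranded by primer extension. Each ungapped eight-base word, pooled with its reverse complement, was scored with an E-score from the Universal PBM Analysis Suite.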

Row | Sequence | PBM E-score
1 | CATTCCGG | -0.0411
2 | CAGGCCCC | -0.354
3 | GCTATAGC | -0.176
4 | CCCCAGTC | -0.215
5 | CAGCAATA | 0.118
6 | AAGCTAGG | 0.00023
7 | TCTATAAA | 0.2
8 | CCCATGCA | -0.00219
9 | ACAACTAT | 0.203
10 | CATCTTAC | -0.0971
11 | AGCATAGG | -0.221
12 | ACACTAGA | 0.17
13 | CGGATATC | 0.0386
14 | ATAGTCGA | 0.144
15 | ACGATGGA | 0.00776
16 | AAGTAGGC | -0.00388
17 | AGATGCCG | -0.0783
18 | AGGGGATG | -0.126
19 | ATTGATGA | 0.158
20 | CGGAACCA | 0.141
21 | CGGCCCAA | -0.226
22 | TTAGTAAA | 0.301

Row | Sequence | PBM E-score
23 | ACCGCGAG | -0.118
24 | GACTAGCC | -0.205
25 | ACATTTTG | 0.198
26 | ACAGAAGA | 0.0639
27 | GTACGCTA | -0.178
28 | ACCCACAT | 0.0767
29 | CCACAAAG | 0.0891
30 | CCGAATAA | 0.293
31 | ACGGTGTG | -0.0861
32 | CAACAACC | 0.128
33 | CGAGCCAC | -0.374
34 | CCTCTGAC | -0.0306
35 | CTAAGTTA | 0.0602
36 | AAGATCAT | 0.146
37 | TCCTCAGA | -0.0721
38 | CGCGCAAG | 0.0798
39 | GGCACCCC | -0.232
40 | AGCCGAGA | -0.112
41 | AACAGAGC | -0.0995
42 | CTGCGAAG | -0.142
43 | ATAGACGC | 0.0493
44 | ATCAGGAA | 0.149

Row | Sequence | PBM E-score
45 | CCGCTGCA | -0.105
46 | CTGTGACA | -0.0684
47 | AACATCTG | 0.0259
48 | TCGGGAGA | -0.105
49 | AATCTTCT | 0.132
50 | AGAATCCG | -0.00623
51 | CGACTAGC | -0.073
52 | ATGCCCCA | -0.221
53 | AGACACGG | -0.0835
54 | CTGTCTTA | 0.0957
55 | CAAGGAGG | -0.0252
56 | CCGACCGA | -0.253
57 | GAGCCGCA | 0.0957
58 | CTACCCCC | -0.352
59 | CGAATTGC | -0.0195
60 | AGGTACCG | -0.0115
61 | GGACTATA | 0.0631
62 | GAATCTGC | 0.00807
63 | TCGCGGAA | -0.0635
64 | GGACTGCC | -0.216
65 | ATTAGCAC | 0.144
66 | AGTTTACA | 0.11

Row | Sequence | PBM E-score
67 | ATGTGAAT | 0.165
68 | AGCTACAG | -0.0615
69 | AAATCCAT | 0.202
70 | CCAAGCGC | -0.0523
71 | CCTCCTTC | -0.236
72 | AAAGAAGC | -0.0389
73 | ATACGGAT | 0.213
74 | ATCCGGCG | -0.0103
75 | ACAGCGCA | -0.156
76 | GCGAATTA | 0.275
77 | AGAGAGAC | -0.143
78 | GACGTGGA | -0.134
79 | AAGTAGCC | -0.2
80 | AACATTTC | 0.272
81 | ACAATTGG | -0.143
82 | GAGCTTGC | -0.271
83 | CCGACTCC | -0.185
84 | GGTAATCA | 0.126
85 | TAAAAGGA | 0.119
86 | CTTGCGTC | -0.0534
